Measurements published in publication PMC13083723 (Patterns, 2026).
About 190 (3.5%) of roughly 5,400 compounds showed an effect of 50% or more. This is one part of the list.

Each compound was assayed on Vero-E6 (assay: primary screen, phospholipidosis by LipidTOX staining; higher = more effect of the substance). Settings: 10 µM.
In short: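 Single-concentration screen at 10 μM, with DMSO 0.1 v/v % and amiodarone 10 μM as controls. Read-out is LipidTOX Red phospholipid staining, which tolerates aldehyde fixation, in Vero-E6 cells.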
In the case of `O=C1NC(=O)c2cc(Nc3ccc(F)cc3)c(Nc3ccc(F)cc3)cc21`, the result_ITMP is reported as 0.32%. For `COC(=O)/C=C/C(=O)N[C@@H]1CC[C@@]2(O)C3Cc4ccc(O)c5c4[C@@]2(CCN3CC2CC2)[C@H]1O5`, the result_ITMP was -2%. With `CN[C@@H]1C(O)[C@@H](O[C@@H]2[C@@H](O)[C@H](O[C@H]3OC(CN)=CC[C@H]3N)[C@@H](N)C[C@H]2N)OC[C@]1(C)O` (stereo partly shown) the result_ITMP was -3.24%. In the case of `Cc1c(NC(=O)OC[C@@H]2COCCN2)cn2ncnc(Nc3ccc4c(cnn4Cc4cccc(F)c4)c3)c12`, the result_ITMP is reported as 42.9%. Work on `O=C(c1ccc(-c2ccc(Cl)cc2)o1)N(Cc1ccccn1)c1ccc(N2CCNCC2)cc1` yielded a result_ITMP of 104%. For `Cc1ccc2nc(NCCN)c3ncc(C)n3c2c1`, the result_ITMP was 38.8%. `CC(C)(C)c1cc(C=C(C#N)C#N)cc(C(C)(C)C)c1O` showed a result_ITMP of 0.84%. Work on `CCCCCCOC(=O)/N=C(/N)c1ccc(NCc2nc3cc(C(=O)N(CCC(=O)OCC)c4ccccn4)ccc3n2C)cc1` yielded a result_ITMP of 4.53%. Work on `CC(C[N+](C)(C)C)OC(N)=O` (stereo not shown) yielded a result_ITMP of -0.34%. In the case of `CN1C2C[C@H](OC(=O)[C@H](CO)c3ccccc3)C[C@H]1[C@H]1OC21` (stereo partly shown), the result_ITMP is reported as -1.02%. `O=C(O)c1nn(Cc2ccc(Cl)cc2Cl)c2ccccc12` was tested, and the result_ITMP was 0.38%. Compound `Cc1cc(C(C#N)c2ccc(Cl)cc2)c(Cl)cc1NC(=O)c1cc(I)cc(I)c1O` (stereo not shown) has a result_ITMP of 5.61%. In the case of `COc1ccc2c(c1OC)C(=O)O[C@@H]2[C@H]1c2cc3c(cc2CCN1C)OCO3`, the result_ITMP is reported as -2.56%. `O=C(O)c1cc2cccc([N+](=O)[O-])c2[nH]1` was tested, and the result_ITMP was -2.26%. `Oc1cc2c(cc1O)C(Cc1cccc3ccccc13)NCC2` (stereo not shown) was tested, and the result_ITMP was 10.9%. `CCOC(=O)c1c[nH]cn1` showed a result_ITMP of 0.53%. Work on `COc1ccc(CCc2nc3cc(-c4c(C)noc4C)ccc3n2C[C@H](C)N2CCOCC2)cc1Cl` yielded a result_ITMP of 20%. `O=C1CCCCCCCCCCCCCCO1` showed a result_ITMP of -5.89%. Compound `Clc1ccc(CCCOCCCN2CCCCC2)cc1` has a result_ITMP of 27.9%. In the case of `CNCc1ccc(-c2[nH]c3cc(F)cc4c3c2CCNC4=O)cc1`, the result_ITMP is reported as 13.3%. `COc1cc(N)c(Cl)cc1C(=O)CCC1CCN(CCNS(C)(=O)=O)CC1` showed a result_ITMP of 1.82%. `NCCc1cc[nH]n1` showed a result_ITMP of -0.16%. `CCCNC(C)C(=O)Nc1c(C)csc1C(=O)OC` (stereo not shown) gave a result_ITMP of 4.34%. `COc1cccc(N(C)C(=S)Oc2ccc3c(c2)CCCC3)n1` showed a result_ITMP of -7.28%. With `CCNC(=O)c1noc(-c2cc(C(C)C)c(O)cc2O)c1-c1ccc(CN2CCOCC2)cc1` the result_ITMP was -0.23%. `Cc1ccc(-c2ncn(-c3ccc(Nc4nccc(-c5cccc(N6CCOCC6)c5)n4)cc3)n2)cn1` was tested, and the result_ITMP was 5.71%. For `CCOC(=O)Nc1ccc(NCc2ccc(F)cc2)cc1N`, the result_ITMP was -0.92%. `C[C@H](Nc1cc(-c2cnn(C)c2)cc(Nc2cnccn2)n1)c1ccc(F)cc1` was tested, and the result_ITMP was 3.49%. In the case of `CCn1c(-c2nonc2N)nc2cncc(C(=O)N3CC[C@H](N)C3)c21`, the result_ITMP is reported as -0.58%. `Nc1ccc(S(=O)(=O)[N-]c2cnc3ccccc3n2)cc1` showed a result_ITMP of -3.26%. With `CC(C)Cn1cnc2c(N)nc3ccccc3c21` the result_ITMP was 1.88%. With `NC/C(=C/F)CCc1ccc(F)cc1` the result_ITMP was 6.45%. For `Cc1ccc(-c2ccc(C)cn2)nc1`, the result_ITMP was -8.2%. For `Clc1cccc(Nc2nnc(-c3ccccc3)c3ccccc23)c1`, the result_ITMP was -0.95%. For `COc1c(Nc2ccc(S(C)(=O)=O)nc2C)ncnc1OC1CCN(C(=O)OC(C)C)CC1`, the result_ITMP was -1.74%. `Oc1ccc(C2(c3ccccc3F)CCC(F)(F)CC2)cc1` was tested, and the result_ITMP was 0.05%. Compound `NC(=O)N1c2ccccc2CC(=O)c2ccccc21` has a result_ITMP of 11.4%. `CN[C@H](CNC(=O)N1CCC[C@@H]([C@@H](OCCNC(=O)OC)c2cccc(Cl)c2)C1)C[C@H]1CCCOC1` gave a result_ITMP of 0.92%. Work on `O=C(O)CCC(=O)O` yielded a result_ITMP of -5.74%. `NC1=NCC2c3ccccc3Cc3ccccc3N12` (stereo not shown) showed a result_ITMP of 0.56%. Compound `CON(C)C(=O)N1N=C(c2cc(F)ccc2F)S[C@@]1(CCCN)c1ccccc1` has a result_ITMP of 27.9%. In the case of `Cc1nc2ccc(NC(=O)Nc3ccnc4cccnc34)cc2o1`, the result_ITMP is reported as -1.47%. Compound `Cn1ncnc1COc1nn2c(-c3cc(F)ccc3F)nnc2cc1C(C)(C)C` has a result_ITMP of -6.83%. For `CNC(=O)c1ccc2cc(C3(O)CCn4cncc43)ccc2c1` (stereo not shown), the result_ITMP was -0.4%. `CSCCC(N)C(=O)O` (stereo not shown) showed a result_ITMP of -3.06%. In the case of `OCc1cncc(F)c1`, the result_ITMP is reported as -3.01%. For `Oc1nc(-c2ccc(C(F)(F)F)cc2)nc2c1CSCC2`, the result_ITMP was -1.76%. Work on `COc1cc2c(cc1OC)-c1c/c(=N\c3c(C)cc(C)cc3C)n(C)c(=O)n1CC2` yielded a result_ITMP of -1.31%. Compound `Cc1cccc(Nc2ccncc2S(=O)(=O)NC(=O)NC(C)C)c1` has a result_ITMP of 2.56%. For `CS(=O)(=O)OC[C@H](O)[C@@H](O)COS(C)(=O)=O`, the result_ITMP was 0.79%. For `Cn1nnc(-c2ccc(-c3ccc(N4C[C@H](CO)OC4=O)cc3F)cn2)n1`, the result_ITMP was -1.43%. `Cc1ccc(Cl)cc1N(CC(=O)Nc1c(F)cccc1F)S(C)(=O)=O` gave a result_ITMP of 8.33%. For `CCOC(=O)[C@@H](N)Cc1ccc(O)c(O)c1`, the result_ITMP was -3.83%. Compound `O=C1Nc2ccc(I)cc2/C1=C/c1cc(Br)c(O)c(Br)c1` has a result_ITMP of -2.07%. For `CNC(=O)c1cccc2cc(Oc3ccnc4cc(OCC5(N)CC5)c(OC)cc34)ccc12`, the result_ITMP was 24.5%. Work on `CC[N+](CC)(CC(=O)Nc1c(C)cccc1C)Cc1ccccc1` yielded a result_ITMP of 3.81%. `COc1cc(NS(=O)(=O)c2ccc(N)cc2)nc(OC)n1` was tested, and the result_ITMP was -3.28%. In the case of `CC(=O)Oc1ccccc1C(=O)Nc1ccccc1`, the result_ITMP is reported as -0.15%. With `O=C1N=C2SCCN2C(=O)C1Cc1ccc(Cl)cc1` (stereo not shown) the result_ITMP was -5.73%. For `CCC(C)(C)c1ccc(CC(C)CN2C[C@@H](C)O[C@@H](C)C2)cc1` (stereo partly shown), the result_ITMP was -0.24%. With `CCNC(=O)[C@@H]1CCCN1C(=O)[C@H](CCCNC(=N)N)NC(=O)[C@H](CC(C)C)NC(=O)[C@@H](CC(C)C)NC(=O)[C@H](Cc1ccc(O)cc1)NC(=O)[C@H](CO)NC(=O)[C@H](Cc1c[nH]c2ccccc12)NC(=O)[C@H](Cc1c[nH]cn1)NC(=O)[C@@H]1CCC(=O)N1` the result_ITMP was -0.77%.
